The list shows a part of the results.

B1: chr10:19624517:19624518:-_ENSMUSG00000020003_ENSMUST00000020182|mus_hu|FALSE|FALSE (ssRNA)
RNA: GGGAGUUCUACAGUCCGACGAUCUUCGUUGUUCUCACUCCAAGUCACAUCAAACAAACCAUCAUUCCAGUCAAAGCUUCUAAAAAGCCUUAGCCCAGCUUCAUCUGGAUCCAAUAUUAGUAGGGUUCCACAGCCCGCGAUGCCCAACAGAGGAUUGAGCAUCA
B2: chr5:71490416:71490417:+_ENSG00000131711_ENST00000296755|hu_mus|FALSE|FALSE (ssRNA)
RNA: GGGAGUUCUACAGUCCGACGAUCAUACUGCAUUUCCUUGCUGCUUUUGACUGGGUUAAGCACGUACAUCUCAAGCUUGCCCACUCCCAUCUUCUGGAACAGGAUGACAGGCUCAAUGGUAUUGCCUACACUUCUAAAUAGAGGCAACAGAGGAUUGAGCAUCA
B3: chr9:110451649:110451650:+_ENSMUSG00000044791_ENSMUST00000153838|mus_mus|FALSE|FALSE (ssRNA)
RNA: GGGAGUUCUACAGUCCGACGAUCCAUUGAUAUAGCAUCUGUCUUAGAAGUACAAAAUGUUGCCACAUCAGCUUCUGUCUCUGGAGAUCCGUUUACAUUUAAUUCAAUGGAACAAAAAUUUCUUAAUUGAUCAUUUUUCACUUUCAACAGAGGAUUGAGCAUCA
B4: 76251920_76253262_95_CDS_ENSG00000137955_ENST00000319942|human|control|control (ssRNA)
RNA: GGGAGUUCUACAGUCCGACGAUCUGCGAUAUAAUCUGCAUGUUUCUCCAAUAACAAAGUGUCCGGUGCAUCUGACUUGAUAAUAACAUCCUUCUGUGGAGUGCCCAUGUCUAACAGGGAAAGGAGAGAGCAGGGUCAGUUCCUCAACAGAGGAUUGAGCAUCA
B5: chr1:95362928:95362929:-_ENSG00000117519_ENST00000538964|hu_mus|motif|central (ssRNA)
RNA: GGGAGUUCUACAGUCCGACGAUCGACCACAUUUAGCAAAUCAACUUUUUAGUCUUCCACAUACAAGCCAGAUACGUACGGAAACUGUAAAAAAAGGAGAAAAAAUAGUUUCCUAUUGUUCGAAAAUACCAGUUUAUGUGUAAGCAACAGAGGAUUGAGCAUCA
B6: 7443155_7443275_1532_3pUTR_ENSMUSG00000027499_ENSMUST00000028999|mouse|control|control (ssRNA)
RNA: GGGAGUUCUACAGUCCGACGAUCAACAGCAUCAGUAAAAGUGUAGUUGGGUGAUAAUUUUUAUAUCUGAAUGCAAUUCACACAAAUUAUUAGUAAAAUUUUACAAACAUUAAAAAGUGCAUAACAACAUUUGGGUAUGAAAGGCAACAGAGGAUUGAGCAUCA

The experiment has as its target T1, UNK ZnF1-3 (human, UniProt Q9C0B0 31-174).
T1 sequence: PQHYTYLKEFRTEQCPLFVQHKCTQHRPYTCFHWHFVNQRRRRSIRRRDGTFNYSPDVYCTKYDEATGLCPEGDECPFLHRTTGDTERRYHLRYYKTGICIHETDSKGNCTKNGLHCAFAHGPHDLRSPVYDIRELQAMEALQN
Put plainly: nsRBNS (natural sequence RNA bind-n-seq); RBNS binding buffer (assumed for nsRBNS): 25 mM Tris pH 7.5, 150 mM KCl, 3 mM MgCl2, 0.01% Triton X-100, 500 ug/ml BSA, 20 U/ml SUPERase-In, 4 C; UNK is unkempt and MSI1 is Musashi-1; names of the RNAs are library labels; protein concentration not given here; high values mean tight binding.
Take B1: the binding signal was 1 enrichment R.

As for B2, the binding signal is 0.566 enrichment R. With B3, the binding signal was found to be 0.661 enrichment R. For the molecule B4, the binding signal amounted to 1.25 enrichment R.

The molecule B5 showed a binding signal of 0.981 enrichment R. Regarding B6, the binding signal came to 2.36 enrichment R.

For the origin of these results see PMC12136788.
